# Results reported in the supplement of paper PMC8728848.
# This is one part of the list.
# B1: CpGal16 (Clavelina picta) (protein)
# chain: MAKMITNYVGKRIECIMVATDMMSTVFSLASATGDLPFYINFRQRENSIVMNTRVHGKWQYEKSQSSGGMNFYEPFRLVVEVRPSVFKVTVSTMGEEDGITFNLQYSQITIKPDEIVAMHLGYCNLRSELLVTDL
# How the values were obtained:
# Assay in all cases: glycan array binding signal (z-score within array); higher = stronger binding
# Details in all cases: glycan notation: IUPAC condensed, linker removed
# Fuc(a1-2)Gal = target: Fuc(a1-2)Gal
# Outline: (§1)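 The binding signal is a Z-score computed within each array. Data were drawn from 3228 arrays in the Consortium for Functional Glycomics database, restricted to those with a known protein sequence. Scores were averaged over arrays of the same protein sequence at different concentrations or buffers, and over linkers, and negative values can be taken as non-binding.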
# Fuc(a1-2)Gal(b1-3)GalNAc = target: Fuc(a1-2)Gal(b1-3)GalNAc
# Outline: as §1
# [1] = target: Fuc(a1-2)Gal(b1-3)GalNAc(a1-3)[Fuc(a1-2)]Gal(b1-4)Glc
# Outline: as §1
# [2] = target: Fuc(a1-2)Gal(b1-3)GalNAc(a1-3)[Fuc(a1-2)]Gal(b1-4)GlcNAc
# Outline: as §1
# [3] = target: Fuc(a1-2)Gal(b1-3)GalNAc(b1-3)Gal
# Outline: as §1
# [4] = target: Fuc(a1-2)Gal(b1-3)GalNAc(b1-3)Gal(a1-4)Gal(b1-4)Glc
# Outline: as §1
# [5] = target: Fuc(a1-2)Gal(b1-3)GalNAc(b1-4)[Neu5Ac(a2-3)]Gal(b1-4)Glc
# Outline: as §1
# Fuc(a1-2)Gal(b1-3)GlcNAc = target: Fuc(a1-2)Gal(b1-3)GlcNAc
# Outline: as §1
# [6] = target: Fuc(a1-2)Gal(b1-3)GlcNAc(b1-2)Man(a1-3)[Fuc(a1-2)Gal(b1-3)GlcNAc(b1-2)Man(a1-6)]Man(b1-4)GlcNAc(b1-4)GlcNAc
# Outline: as §1
# [7] = target: Fuc(a1-2)Gal(b1-3)GlcNAc(b1-2)Man(a1-3)[Fuc(a1-2)Gal(b1-3)GlcNAc(b1-2)Man(a1-6)]Man(b1-4)GlcNAc(b1-4)[Fuc(a1-6)]GlcNAc
# Outline: as §1
# [8] = target: Fuc(a1-2)Gal(b1-3)GlcNAc(b1-3)Gal(b1-4)Glc
# Outline: as §1
# [9] = target: Fuc(a1-2)Gal(b1-3)GlcNAc(b1-3)GalNAc
# Outline: as §1
# [10] = target: Fuc(a1-2)Gal(b1-3)GlcNAc(b1-3)[Fuc(a1-2)Gal(b1-3)GlcNAc(b1-6)]GalNAc
# Outline: as §1
# [11] = target: Fuc(a1-2)Gal(b1-3)GlcNAc(b1-3)[Gal(b1-4)GlcNAc(b1-6)]Gal(b1-4)Glc
# Outline: as §1
# [12] = target: Fuc(a1-2)Gal(b1-3)GlcNAc(b1-3)[Neu5Ac(a2-6)Gal(b1-4)GlcNAc(b1-6)]Gal(b1-4)Glc
# Outline: as §1
# [13] = target: Fuc(a1-2)Gal(b1-3)GlcNAc6S
# Outline: as §1
# [14] = target: Fuc(a1-2)Gal(b1-3)[Fuc(a1-4)]GlcNAc
# Outline: as §1
# [15] = target: Fuc(a1-2)Gal(b1-3)[Fuc(a1-4)]GlcNAc(b1-2)Man(a1-3)[Fuc(a1-2)Gal(b1-3)[Fuc(a1-4)]GlcNAc(b1-2)Man(a1-3)]Man(b1-4)GlcNAc(b1-4)GlcNAc
# Outline: as §1
# [16] = target: Fuc(a1-2)Gal(b1-3)[Fuc(a1-4)]GlcNAc(b1-2)Man(a1-3)[Fuc(a1-2)Gal(b1-3)[Fuc(a1-4)]GlcNAc(b1-2)Man(a1-6)]Man(b1-4)GlcNAc(b1-4)[Fuc(a1-6)]GlcNAc(b1-4)[Fuc(a1-6)]GlcNAc
# Outline: as §1
# [17] = target: Fuc(a1-2)Gal(b1-3)[Fuc(a1-4)]GlcNAc(b1-3)[Fuc(a1-3)[Gal(b1-4)]GlcNAc(b1-6)]Gal(b1-4)Glc
# Outline: as §1
# [18] = target: Fuc(a1-2)Gal(b1-3)[Fuc(a1-4)]GlcNAc(b1-3)[Gal(b1-4)GlcNAc(b1-6)]Gal(b1-4)Glc
# Outline: as §1
# [19] = target: Fuc(a1-2)Gal(b1-4)Fuc(a1-3)]GlcNAc(b1-2)Man(a1-3)[Fuc(a1-2)Gal(b1-4)[Fuc(a1-3)]GlcNAc(b1-2)Man(a1-6)]Man(b1-4)GlcNAc(b1-4)GlcNAc
# Outline: as §1
# Fuc(a1-2)Gal(b1-4)Glc = target: Fuc(a1-2)Gal(b1-4)Glc
# Outline: as §1
# Fuc(a1-2)Gal(b1-4)Glc6S = target: Fuc(a1-2)Gal(b1-4)Glc6S
# Outline: as §1
# Fuc(a1-2)Gal(b1-4)GlcNAc = target: Fuc(a1-2)Gal(b1-4)GlcNAc
# Outline: as §1
# [20] = target: Fuc(a1-2)Gal(b1-4)GlcNAc(b1-2)Man
# Outline: as §1
# [21] = target: Fuc(a1-2)Gal(b1-4)GlcNAc(b1-2)Man(a1-3)[Fuc(a1-2)Gal(b1-4)GlcNAc(b1-2)Man(a1-6)]Man(b1-4)GlcNAc(b1-4)GlcNAc
# Outline: as §1
# [22] = target: Fuc(a1-2)Gal(b1-4)GlcNAc(b1-2)Man(a1-3)[Fuc(a1-2)Gal(b1-4)GlcNAc(b1-2)Man(a1-6)]Man(b1-4)GlcNAc(b1-4)[Fuc(a1-6)]GlcNAc
# Outline: as §1
# [23] = target: Fuc(a1-2)Gal(b1-4)GlcNAc(b1-2)[Fuc(a1-2)Gal(b1-4)GlcNAc(b1-4)]Man(a1-3)[Fuc(a1-2)Gal(b1-4)GlcNAc(b1-2)Man(a1-6)]Man(b1-4)GlcNAc(b1-4)GlcNAc
# Outline: as §1
# [24] = target: Fuc(a1-2)Gal(b1-4)GlcNAc(b1-3)Gal(b1-4)GlcNAc
# Outline: as §1
# [25] = target: Fuc(a1-2)Gal(b1-4)GlcNAc(b1-3)Gal(b1-4)GlcNAc(b1-2)Man(a1-3)[Fuc(a1-2)Gal(b1-4)GlcNAc(b1-3)Gal(b1-4)GlcNAc(b1-2)Man(a1-6)]Man(b1-4)GlcNAc(b1-4)GlcNAc
# Outline: as §1
# [26] = target: Fuc(a1-2)Gal(b1-4)GlcNAc(b1-3)Gal(b1-4)GlcNAc(b1-3)Gal(b1-4)GlcNAc
# Outline: as §1
# [27] = target: Fuc(a1-2)Gal(b1-4)GlcNAc(b1-3)GalNAc
# Outline: as §1
# [28] = target: Fuc(a1-2)Gal(b1-4)GlcNAc(b1-3)[Fuc(a1-2)Gal(b1-4)GlcNAc(b1-6)]GalNAc
# Outline: as §1
# [29] = target: Fuc(a1-2)Gal(b1-4)GlcNAc(b1-3)[Fuc(a1-3)[Gal(b1-4)]GlcNAc(b1-6)]Gal(b1-4)Glc
# Outline: as §1
# [30] = target: Fuc(a1-2)Gal(b1-4)GlcNAc(b1-6)GalNAc
# Outline: as §1
# [31] = target: Fuc(a1-2)Gal(b1-4)GlcNAc6S
# Outline: as §1
# [32] = target: Fuc(a1-2)Gal(b1-4)[Fuc(a1-3)]GlcNAc
# Outline: as §1
# [33] = target: Fuc(a1-2)Gal(b1-4)[Fuc(a1-3)]GlcNAc(b1-2)Man(a1-3)[Fuc(a1-2)Gal(b1-4)[Fuc(a1-3)]GlcNAc(b1-2)Man(a1-6)]Man(b1-4)GlcNAc(b1-4)[Fuc(a1-6)]GlcNAc
# Outline: as §1
# [34] = target: Fuc(a1-2)Gal(b1-4)[Fuc(a1-3)]GlcNAc(b1-2)[Fuc(a1-2)Gal(b1-4)[Fuc(a1-3)]GlcNAc(b1-4)]Man(a1-3)[Fuc(a1-2)Gal(b1-4)[Fuc(a1-3)]GlcNAc(b1-2)Man(a1-6)]Man(b1-4)GlcNAc(b1-4)GlcNAc
# Outline: as §1
# [35] = target: Fuc(a1-2)Gal(b1-4)[Fuc(a1-3)]GlcNAc(b1-3)Gal(b1-4)[Fuc(a1-3)]GlcNAc
# Outline: as §1
# [36] = target: Fuc(a1-2)Gal(b1-4)[Fuc(a1-3)]GlcNAc(b1-3)Gal(b1-4)[Fuc(a1-3)]GlcNAc(b1-3)Gal(b1-4)[Fuc(a1-3)]GlcNAc
# Outline: as §1
# [37] = target: Fuc(a1-2)Gal(b1-4)[Fuc(a1-3)]GlcNAc(b1-3)GalNAc
# Outline: as §1
# [38] = target: Fuc(a1-2)Gal(b1-4)[Fuc(a1-3)]GlcNAc(b1-3)[Neu5Ac(a2-6)Gal(b1-4)GlcNAc(b1-6)]Gal(b1-4)Glc
# Outline: as §1
# [39] = target: Fuc(a1-2)Gal3S(b1-4)GlcNAc
# Outline: as §1
binder,measurement,setting,value
B1,glycan array binding signal (z-score),Fuc(a1-2)Gal,-0.237
same,glycan array binding signal (z-score),Fuc(a1-2)Gal(b1-3)GalNAc,-0.345
same,glycan array binding signal (z-score),[1],0.334
same,glycan array binding signal (z-score),[2],-0.167
same,glycan array binding signal (z-score),[3],-0.325
same,glycan array binding signal (z-score),[4],-0.475
same,glycan array binding signal (z-score),[5],-0.319
same,glycan array binding signal (z-score),Fuc(a1-2)Gal(b1-3)GlcNAc,2.93
same,glycan array binding signal (z-score),[6],1.06
same,glycan array binding signal (z-score),[7],-0.123
same,glycan array binding signal (z-score),[8],3.11
same,glycan array binding signal (z-score),[9],1.56
same,glycan array binding signal (z-score),[10],1.36
same,glycan array binding signal (z-score),[11],2.79
same,glycan array binding signal (z-score),[12],1.52
same,glycan array binding signal (z-score),[13],1.07
same,glycan array binding signal (z-score),[14],-0.399
same,glycan array binding signal (z-score),[15],-0.309
same,glycan array binding signal (z-score),[16],-0.402
same,glycan array binding signal (z-score),[17],-0.394
same,glycan array binding signal (z-score),[18],-0.37
same,glycan array binding signal (z-score),[19],-0.35
same,glycan array binding signal (z-score),Fuc(a1-2)Gal(b1-4)Glc,0.666
same,glycan array binding signal (z-score),Fuc(a1-2)Gal(b1-4)Glc6S,3.43
same,glycan array binding signal (z-score),Fuc(a1-2)Gal(b1-4)GlcNAc,-0.249
same,glycan array binding signal (z-score),[20],-0.228
same,glycan array binding signal (z-score),[21],0.648
same,glycan array binding signal (z-score),[22],-0.355
same,glycan array binding signal (z-score),[23],-0.375
same,glycan array binding signal (z-score),[24],1.23
same,glycan array binding signal (z-score),[25],2.5
same,glycan array binding signal (z-score),[26],1.16
same,glycan array binding signal (z-score),[27],-0.083
same,glycan array binding signal (z-score),[28],-0.338
same,glycan array binding signal (z-score),[29],1.79
same,glycan array binding signal (z-score),[30],-0.267
same,glycan array binding signal (z-score),[31],0.706
same,glycan array binding signal (z-score),[32],-0.389
same,glycan array binding signal (z-score),[33],-0.138
same,glycan array binding signal (z-score),[34],-0.29
same,glycan array binding signal (z-score),[35],-0.335
same,glycan array binding signal (z-score),[36],-0.343
same,glycan array binding signal (z-score),[37],-0.125
same,glycan array binding signal (z-score),[38],-0.358
same,glycan array binding signal (z-score),[39],-0.309
